Experimental findings from the RNAGym collection of RNA variant scans (doi:10.7554/elife.90254) are described below.

The source gives no read counts; variants with many changes may rest on few reads.

B1: OR4K15 (parent)
chain: GUUAACGGUCAUAGGCCAUGGAAACUAGGAGCACCAUUUCGCUGCCAGUGAAGAAAUGAACAAAGAAAAUCUGGGCCAGGCAGGCAUCAAAAGAAAUAGUCUUGCGCUCAACCAGAAAGUCUGUAAUCAUUUUAAGGGUA

Variants of B1 are the subject of the data set. Put plainly: self-cleavage, relative activity (ratio to wild type); higher = more cleavage; in vitro, sequencing; the parent is a self-cleaving ribozyme.
For the variant A30C G50A A69U, the self-cleavage amounted to 0.94.
With A30G A94G C105U U122C U127A G137A, the self-cleavage turned out to be 0.24.
The same measure for A27G U102C A118C: 0.89; for A30G A47G U103C A114U: 0.02; for A30G A55G U72G: 0.33.
Turning to G28U A56G A59G U70C, the self-cleavage was 0.72.
The same measure for A30G A92G A134G: 1.18; for A30G A47G A86U: 1.5.
For the variant A27U U49C A82U, the self-cleavage came to 0.17.
The same measure for A30G A89G C109A A114C: 0; for G29A A90G U120A: 0.63; for A27U A62C U72C A82G: 0.19.
The same measure for A30G A64G A67G A118G A126G U132G: 0.8.
As for A27U C88U U120C, the self-cleavage was 0.9.
Take A30G A55U A110G U120C: the self-cleavage worked out at 0.08.
The same measure for A30G A62U A91G: 0.86.
Take A30G A55G U102A U108C U122G: the self-cleavage stood at 0.
Consider A27G U57C U131C, for which the self-cleavage was found to be 0.45.
The same measure for G28U U103C A118G U120C: 0.23; for A30G A51G A98G A117G: 0.62; for A27U U57C A59U: 1.5.
Take A30G A52G U100C A125U: the self-cleavage is 1.69.
With A30G A89G U120C, the self-cleavage amounted to 0.53.
Turning to A30G A33U A68G G106A A117G, the self-cleavage was 0.
Take G28A A55G G75A A95U U120C: the self-cleavage is 0.08.
In the case of A30G A55G A64U A86G A92G A118G, the self-cleavage came out at 0.57.
The same measure for A30G A59G U72C A91G: 0.23.
The same measure for G29A U57C A111U: 0.04; for A30C A66G U127G: 2; for A30G A51G A90G: 1.49.
The same measure for A30G A33U A92G U120A: 1.3; for G28U U57C U127A: 2.47; for A30G A95G U122C: 1.49.
Take A30G A52G A114U: the self-cleavage is 0.03.
In the case of A30G A51G A69G U87C U122C A135G, the self-cleavage is 0.44.
As for G28A A36G U43C U57C, the self-cleavage was 1.15.
The same measure for A30G A90G A96G C113G A114C: 0.01.
The same measure for A27U A78G A118G: 0.33; for A30G A56G A82G: 0.71.
The same measure for A30G A52G A118G U132C: 1.12; for A27U U37C A63U: 0.77.
On to A30G A116G U133A, for which the self-cleavage is 0.67.
The same measure for A30G A33G A60G: 0.59.
The same measure for A30G A51G A55U A118G A126U U127C: 0.17; for A30G A94G U120C: 1.04; for A30G A111G U132A: 0.
The same measure for A30G A54U U120A: 1.23; for A30G A54G A59G C113U: 0.09; for A30C A59U A63C: 2.38.
On to A30G A62G A64G U100C, for which the self-cleavage turned out to be 1.31.
The same measure for A27U A94G U102C U103A: 0.21.
The same measure for G28A A64G A78G A118G: 0.16.
The same measure for A27U A51G A95G: 1.18.
On to A30G A86G A96G A116C, for which the self-cleavage came to 0.18.
Regarding A27U U57C A114U U130A, the self-cleavage came out at 0.02.
Take G28A U43A U72A: the self-cleavage is 0.14.
The same measure for A30G A47G A116G: 0.53; for A30G A51G A126U: 0.98.
The same measure for G28U A92G U130C: 1.01; for G29A A82G A116G U133C A140U: 0.46.
The same measure for A30G A89G A98G: 0.84.
As for G28A A55G A89G, the self-cleavage stood at 0.81.
The same measure for A27U A55U A68G U97C: 0.37; for A27U A68G U100C: 2.5; for A30G A67G A86G U100C U131C: 1.34.
Regarding A30C U72C A117U G119A U127A, the self-cleavage came out at 0.32.
In the case of A30G A96G U100G U132C, the self-cleavage worked out at 1.04.
As to A30G A55G U130A, the self-cleavage turned out to be 0.5.
The same measure for A30G A51G A52G: 0.93.
Take A30G A98G A117G: the self-cleavage turned out to be 0.16.
The same measure for A30G A33G U38C: 0.98; for A30G A66G A86G U120A: 1.49; for A30C A89U A116G: 0.21.
Take G29U A36C A62U: the self-cleavage came out at 2.16.
With A30G A33G U132C, the self-cleavage was 1.19.
For A27G U70C A95G A111U U139C A140G, the self-cleavage stood at 0.06.
The same measure for G28U A47G A55G A66G A94G A140G: 1.12; for G29U U57C U108A: 0.01; for A30G A64G A66G U108C: 0.07.
The same measure for A27U A68G U127C U132C: 1.05.
The same measure for A30G A60G U120C U122C: 1.22.
As for A30G A33G A94G, the self-cleavage was determined as 1.07.
For the variant A30G A86G U108A, the self-cleavage was 0.01.
For A30G A51U A63G A82G, the self-cleavage was 0.23.
